The other results are listed elsewhere or left out. Sequences were assembled here from the parent chain. Values near 0.05 are background.
B1: TEV protease; numbered along this chain (parent)
chain: MGESLFKGPRDYNPISSSICHLTNESDGHTTSLYGIGFGPFIITNKHLFRRNNGTLVVQSLHGVFKVKDTTTLQQHLVDGRDMIIIRMPKDFPPFPQKLKFREPQREERICLVTTNFQTKSMSSMVSDTSCTFPSGDGIFWKHWIQTKDGQCGSPLVSTRDGFIVGIHSASNFTNTNNYFTSVPKNFMELLTNQEAQQWVSGWRLNADSVLWGGHKVFMVKPEEPFQPVKEATQL

Variants of: B1
Experiment: raw area under fraction-flipped curve 0-4 h after induction (AUC4h, not background-subtracted), DNA-recorder readout of cleavage of the substrate (dimensionless); higher = more cleavage of the substrate by the protease variant
Settings: temperature: 34 °C; time window: 0-4 h after rhamnose induction
Method: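 In vivo DNA recorder in E. coli TOP10(DE3) ΔrhaA at 34 °C. Each TEVp single-site mutant (parent TEVp 0) is paired with a single-site variant of the 7-mer TEVs (canonical ENLYFQ|S). The substrate sits between flexible linkers in a Bxb1-sfGFP-TEVs-SsrA fusion, so cleavage stabilises Bxb1 and speeds flipping of a recombination array, read by NGS. The value is the raw area under the fraction-flipped curve over 0-4 h after rhamnose induction (AUC4h), with ≥20 reads per time point. It is not background-subtracted; inactive controls average about 0.047.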
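Note: Bxb1 expression induced with 0.2% (w/v) L-rhamnose at OD600 near 0.5, cultures sampled hourly, flipped fraction per protease–substrate barcode pair counted by paired-end Illumina sequencing.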

| Variant | area with substrate ENLYAQS | area with substrate ENLYCQS | area with substrate ENLYDQS | area with substrate ENLYEQS | area with substrate ENLYGQS | area with substrate ENLYHQS | area with substrate ENLYKQS | area with substrate ENLYLQS | area with substrate ENLYMQS | area with substrate ENLYNQS | area with substrate ENLYRQS | area with substrate ENLYSQS | area with substrate ENLYTQS | area with substrate ENLYWQS | area with substrate ENLYQQS | area with substrate ENLYVQS | area with substrate ENLYIQS | area with substrate ENLYPQS | area with substrate ENLYYQS |
| --- | --- | --- | --- | --- | --- | --- | --- | --- | --- | --- | --- | --- | --- | --- | --- | --- | --- | --- | --- |
| MGESLFKGPRDYNPISSSICHLTNESDGHTTSLYGIGFGPFIITNKHLFRRNNGTLVVQSLHGVFKVKDTTTLQQHLVDGRDMIIIRMPKDFPPFPQKLKFREPQREERICLVTTNFQTKSMSSMVSDTSCTFPSGDGIFWKHWIQTKDGQCGSPLVSTRDGFIVGIHSASNFTNTNNYFTSVPKNFMCLLTNQEAQQWVSGWRLNADSVLWGGHKVFMVKPEEPFQPVKEATQL [E189C] | 0.0761 | 0.0574 | 0.0379 | 0.0682 | 0.0701 | 0.0521 | 0.0555 | 0.0789 | 0.0696 | 0.0632 | 0.0677 | 0.0693 | 0.056 | 0.058 | – | – | – | – | – |
| MGRSLFKGPRDYNPISSSICHLTNESDGHTTSLYGIGFGPFIITNKHLFRRNNGTLVVQSLHGVFKVKDTTTLQQHLVDGRDMIIIRMPKDFPPFPQKLKFREPQREERICLVTTNFQTKSMSSMVSDTSCTFPSGDGIFWKHWIQTKDGQCGSPLVSTRDGFIVGIHSASNFTNTNNYFTSVPKNFMELLTNQEAQQWVSGWRLNADSVLWGGHKVFMVKPEEPFQPVKEATQL [E3R] | 0.062 | – | 0.0462 | 0.0813 | 0.0654 | 0.0716 | 0.0505 | 0.0636 | 0.0928 | 0.0746 | 0.0839 | 0.0723 | 0.0616 | 0.0903 | 0.0758 | 0.114 | – | – | – |
| MGESLFKGPRDYNPISSSICHLTNESDGHTTSLYGIGFGPFIITNKHLFRRNNGTLVVQSLHGVFKSKDTTTLQQHLVDGRDMIIIRMPKDFPPFPQKLKFREPQREERICLVTTNFQTKSMSSMVSDTSCTFPSGDGIFWKHWIQTKDGQCGSPLVSTRDGFIVGIHSASNFTNTNNYFTSVPKNFMELLTNQEAQQWVSGWRLNADSVLWGGHKVFMVKPEEPFQPVKEATQL [V67S] | 0.0634 | – | 0.0521 | 0.0681 | 0.0536 | 0.0681 | 0.0797 | – | 0.076 | 0.0564 | 0.0572 | 0.0653 | 0.0696 | 0.0657 | 0.0552 | 0.0911 | 0.0928 | 0.0713 | 0.0588 |
| MGESLFKGPRDYNPISSSICHLTNESDGHTTSLYGIGFGPFIITNKHLFRRNNGTLVVQSLHGVFKVKDTTTLQQHLVDGRDMIIIRMPKDFPPFPQKLKFREPQREERICLVTTNFQTKSMSSMVSDTSCTFPSGDGIFWKHWIQTKDGQCGSPLVSTRDGFIVGIHSASNFTNTNNYFTSVPKNFMELLTNQEAQQWVSGWRLNKDSVLWGGHKVFMVKPEEPFQPVKEATQL [A207K] | 0.0656 | – | 0.0701 | 0.0914 | 0.0657 | 0.0665 | 0.0619 | 0.0809 | 0.0781 | 0.0592 | – | – | – | 0.0817 | – | – | 0.0604 | 0.0759 | – |
| MGESLFKGPRDYNPISSSICHLTNESDGHTTSLYGISFGPFIITNKHLFRRNNGTLVVQSLHGVFKVKDTTTLQQHLVDGRDMIIIRMPKDFPPFPQKLKFREPQREERICLVTTNFQTKSMSSMVSDTSCTFPSGDGIFWKHWIQTKDGQCGSPLVSTRDGFIVGIHSASNFTNTNNYFTSVPKNFMELLTNQEAQQWVSGWRLNADSVLWGGHKVFMVKPEEPFQPVKEATQL [G37S] | 0.0492 | – | 0.06 | 0.0594 | 0.0587 | 0.0635 | – | 0.0736 | 0.0606 | 0.0603 | – | – | – | 0.0502 | 0.0559 | 0.0756 | 0.0815 | – | – |
| MGESLFKGPRDYNPISSSICHLTNESDGHTTSLYGIGFGPFIITNKHLFRRNNGTLVVQSLHGVFKVKDTTTLQQHLVDGRDMIIIRMPKDFPPFPQKLKFREPQREERICLVTTNFQTKSMSSMVSDTSCTFPSGDGIFWKHWIQTKDGQCGSPLVSTRDGFIVGIHSASNFTNTNNYFTSVPKNFMELLTNQEAQQWVSGWRLNADSVLWGGHKVFMVKPEEPFQPKKEATQL [V229K] | 0.0808 | – | 0.0637 | 0.0205 | – | 0.0769 | – | – | 0.0927 | 0.0781 | 0.066 | 0.0724 | – | 0.152 | 0.0618 | 0.127 | 0.104 | 0.0766 | 0.0881 |
| MGESLFKGPRDYNPISSSICHLTNESDGHTTSLYGIGFGPFIITNKHLFRRNNGTLVVQSLHGVFKVKDTTTLQQHLVDGRDMIIIRMPKDFPPFPQKLKFREPQREERICLVTTPFQTKSMSSMVSDTSCTFPSGDGIFWKHWIQTKDGQCGSPLVSTRDGFIVGIHSASNFTNTNNYFTSVPKNFMELLTNQEAQQWVSGWRLNADSVLWGGHKVFMVKPEEPFQPVKEATQL [N116P] | 0.066 | – | 0.0447 | 0.0669 | 0.0649 | 0.059 | 0.0803 | 0.0799 | 0.0702 | – | 0.0685 | 0.0832 | – | 0.0836 | 0.0709 | 0.085 | – | 0.0715 | – |
| MGESLFKGPRDYNPISSSICHLTNESDGHTTSLYGIGFGPFIITNKHLFRRNNGTLVVQSLHGVFKVKDTTTLQQHLVDGRDMIIIRMPKDFPPFPQKLKFREPQREERICLVTTNFQTKSMSSMVSDTSCTFQSGDGIFWKHWIQTKDGQCGSPLVSTRDGFIVGIHSASNFTNTNNYFTSVPKNFMELLTNQEAQQWVSGWRLNADSVLWGGHKVFMVKPEEPFQPVKEATQL [P134Q] | 0.0567 | – | – | 0.0774 | – | 0.0728 | – | – | 0.0654 | 0.0821 | 0.0625 | – | – | – | – | 0.119 | 0.117 | 0.0621 | – |
| MGESLFKGPRDYNPISSSICHLTNESDGHTTSLYGIGFGPFIITNKHLFRRNNGTLVVQSLHGVFKVKSTTTLQQHLVDGRDMIIIRMPKDFPPFPQKLKFREPQREERICLVTTNFQTKSMSSMVSDTSCTFPSGDGIFWKHWIQTKDGQCGSPLVSTRDGFIVGIHSASNFTNTNNYFTSVPKNFMELLTNQEAQQWVSGWRLNADSVLWGGHKVFMVKPEEPFQPVKEATQL [D69S] | 0.065 | 0.0827 | 0.0596 | 0.0614 | 0.0596 | 0.0625 | – | 0.074 | 0.0755 | 0.0723 | 0.0651 | 0.0754 | 0.074 | – | 0.0637 | – | 0.0748 | – | 0.0693 |

From the supplement of paper PMC12217912
